Assay results as given in PubChem BioAssay AID686978 (National Center for Advancing Translational Sciences (NCATS), 2013).
Values joined by “and” are separate entries in the source; they are usually repeats but may differ in a detail not shown here. Identical values can stand only once. In all, about 420,000 compounds went through this assay and about 64,000 (15%) were called active. The inconclusive results got no clear call from the source; some entries with a clear call stand among them for comparison. Calls come from the whole dose curve; as a rule, active = well fitted inhibition curve with a large enough effect; inconclusive = small, poorly fitted or top-dose-only effect; inactive = flat fitted curve, though single readings scatter. Potencies of inconclusive entries are doubtful fits and often do not repeat.

test: qHTS for Inhibitors of human tyrosyl-DNA phosphodiesterase 1 (TDP1): qHTS in cells in absence of CPT; conditions: DT40 Tdp1-/- hTDP1 cells, no CPT, ATP luminescence, 48 h; activity change, negative = growth inhibition: at 46.2 µM (top of the series) unless noted; note: nearly all actives have a fitted effect of over 55% in size
Summary of the method: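 A cellular qHTS used chicken DT40 cells lacking endogenous Tdp1 but carrying stably transfected human TDP1. Compounds were applied without camptothecin, and cell growth kinetics were judged by ATP-dependent luminescence after ≥48 hr.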
% is set by controls: 0 for no effect and ±100 for the full control effect; potency is the fitted concentration of half-maximal effect; tags give direction and shape of the fitted curve.

| SMILES | Potency | activity change, negative = growth inhibition |
| --- | --- | --- |
| CCOc1ccc(S(=O)(=O)N2CCCCC2)cc1NC(=O)C1CCCC1 | inconclusive: 29.1 µM [inhibitor, single point] |  |
| CN(/N=C/c1ccco1)C1=NS(=O)(=O)c2ccccc21 | inactive |  |
| COc1cccc(/C=C/C(=O)c2ccc[nH]2)c1 | inconclusive: 18.4 µM [inhibitor, single point] |  |
| COCc1cc(C)nc(N/N=C/c2ccc(-c3ccc(Cl)cc3[N+](=O)[O-])o2)c1C#N | inactive |  |
| NC(=O)c1ccccc1NC(=O)COc1ccc(Cl)cc1 | inconclusive: 25.9 µM [inhibitor, single point] |  |
| NNC(=O)c1sc(-c2ccccc2)cc1N | inconclusive: 18.4 µM [inhibitor, single point] |  |
| Cc1cccc(N(C(=O)c2snc(C(N)=O)c2N)C(C(=O)NCC2CCCO2)c2ccc(N(C)C)cc2)c1 (stereo unspecified) | inconclusive: 23.1 µM [inhibitor, single point] |  |
| CCCCC(CC(C)O)c1n[nH]c(=S)n1-c1ccccc1 (stereo unspecified) |  | inconclusive: -27.5% [inhibitor] |
| Cn1cnnc1SCc1ccc(C(=O)N/N=C(/CCC(=O)O)c2ccc(C(C)(C)C)cc2)cc1 | inactive |  |
| COc1cc(C(=O)NCc2ccco2)c(Br)c(OC)c1OC | inactive |  |
| CCC(C)(C)NC(=O)Cc1ccc(Cl)cc1 | inactive |  |
| COc1cc(-c2noc(C)c2C(=O)NCC[C@@H]2CCCN2C)cc(OC)c1OC | inactive |  |
| Cc1nc(Nc2nc(-c3ccccc3)cc(=O)[nH]2)nc2ccccc12 | active: 16.4 µM |  |
| CCOC(=O)c1ccc(-c2ccc(/C=N/NC(=O)CN(c3ccccc3Cl)S(C)(=O)=O)o2)cc1 | active: 23.1 µM |  |
| CCOC(=O)N1CCN(Cc2ccc3c(c2)CN(C(=O)c2cccc(-n4cccn4)c2)CCO3)CC1 | inconclusive: 20.6 µM [inhibitor, single point] |  |
| Cc1c(Cl)cccc1-n1nc(C)c2c(C)cc(=O)n(CC(=O)N3CCCc4ccccc43)c21 | active: 4.61 µM |  |
| Cc1ccc(OCC(=O)N2CCc3ccccc3C2)c(Br)c1 |  | inconclusive: -32.3% [inhibitor] |
| CC(C)Oc1ccc(CN2CCC2(C)C(=O)Nc2cnc3ccccc3c2)cc1 (stereo unspecified) | inconclusive: 23.1 µM [inhibitor, single point] |  |
| Cc1ccc(CNC(=O)CCCN2C(=O)CCn3nc(-c4cccn4C)cc32)cc1 | inconclusive: 0.0082 µM [inhibitor, full curve, poor fit] |  |
| O=c1onc(-c2ccccc2Cl)n1-c1ccccc1Cl | inactive |  |
| CCC1(CC)Cc2ccccc2-c2nc3ccccc3c(=O)n21 | inconclusive: 29.1 µM [inhibitor, single point] |  |
| CCc1ccc(-n2c(=S)sc3c(=O)n(-c4ccccc4OC)c(=S)[nH]c32)cc1 | inconclusive: 16.4 µM [inhibitor, partial curve] |  |
| CCN(CC)C(=O)c1ccc2c(c1)nnn2C | inactive |  |
| Cn1cncc1C#Cc1ccc2cc(CCO)oc(=O)c2c1 | inactive |  |

| SMILES | Potency | activity change, negative = growth inhibition |
| --- | --- | --- |
| O=C(Nc1ccsc1C(=O)N1CCCCCC1)c1ccccc1 | inconclusive: 14.6 µM [inhibitor, partial curve, poor fit] |  |
| COc1ccc(-c2nc3ccccc3n3c(-c4ccc(OC)cc4)c4c(=O)n(C)c(=O)n(C)c4c23)cc1 | inconclusive: 2.59 µM [inhibitor, full curve, poor fit] |  |
| COc1cccc(-c2nnc(SCC(=O)N3CC(C)CC(C)C3)o2)c1 (stereo unspecified) | active: 20.6 µM |  |
| CCCOc1ccc(CNC(=O)C2CCN(C(=O)c3sccc3-n3cccc3)CC2)cc1 | inconclusive: 20.6 µM [inhibitor, single point] |  |
| Cc1cc(C)cc(NC(=O)C(c2ccccc2)N2CCN(CC(=O)NC3CC3)CC2)c1 (stereo unspecified) | inactive |  |
| CN1CCN(c2nc(Nc3cccc(C(F)(F)F)c3)nc(N3CCOCC3)n2)CC1 | inconclusive: 29.1 µM [inhibitor, single point] |  |
| S=C(NCc1ccco1)N1CCN(c2cccc(Cl)c2)CC1 | inconclusive: 18.4 µM [inhibitor, single point] |  |
| O=C(NC(Cc1c[nH]c2ccccc12)C(=O)Nc1ccc(F)c([N+](=O)[O-])c1)c1cccs1 (stereo unspecified) | inconclusive: 20.6 µM [inhibitor, single point] |  |
| COc1ccccc1N1CCN(C(=O)C2CCN(S(=O)(=O)c3ccc(F)cc3)CC2)CC1 |  | inconclusive: -33.5% [inhibitor] |
| C/C(=N\NC(=S)NCc1ccccc1)c1ccc(C(C)(C)C)cc1 | active: 23.1 µM |  |
| CCN(CC)c1ccc(/C=C/c2c(C)cnc3ccc(C)cc23)cc1 | active: 20 µM |  |
| Cc1cc2oc3c(c(=O)c2cc1C)C(c1ccc(C(C)C)cc1)N(c1nc(C)c(C)s1)C3=O (stereo unspecified) | inactive |  |
| Cc1c(C)[n+](=O)c(-c2cccs2)c(C)n1[O-] | inactive |  |
| O=C(c1ccc(NC(=O)C2(c3ccccc3)CCCC2)cc1)N1CCOCC1 | inconclusive: 23.1 µM [inhibitor, single point] |  |
| Cc1cc(NS(=O)(=O)c2ccc(NC(=O)c3cc4ccccc4o3)cc2)nc(C)n1 | inactive |  |
| Clc1ccc(C2=NN=C3COc4ccccc4N3C2)cc1 | inconclusive: 20.6 µM [inhibitor, single point] |  |
| CC(=O)O[C@H]1CC[C@@]2(C)[C@@H](CC[C@H]3[C@@H]4CC[C@H](C(C)O)[C@@]4(C)CC(=O)[C@@H]32)C1 (stereo partly specified) | inconclusive: 14.6 µM [inhibitor, partial curve] |  |
| CCOC(=O)c1ccc2c(c1)N(Cc1ccc(F)cc1Cl)C(=O)c1ccccc1S2 | inconclusive: 23.1 µM [inhibitor, partial curve] |  |
| COc1cc(C(=O)OCCc2cc3ccccc3c(=O)o2)cc(OC)c1OC | active: 5.8 µM |  |
| OC(c1ccc(Cl)cc1)c1ncc(-c2cccc(C(F)(F)F)c2)[nH]1 (stereo unspecified) | active: 20.6 µM |  |
| Cc1ccccc1CNC(=O)c1ccc2ccccc2n1 | inconclusive: 13 µM [inhibitor, partial curve, poor fit] |  |
| O=C(OCC(=O)N1CCN(C(=O)c2ccco2)CC1)c1ccc(Cl)c(Cl)c1 | inconclusive: 20.6 µM [inhibitor, single point] |  |
| COc1ccc2oc(-c3ccc(O)cc3)cc(=O)c2c1 | active: 26.6 µM |  |
| CCn1c(CNC(=O)c2ccccc2Br)nnc1SCC(=O)Nc1nncs1 | inactive |  |

| SMILES | Potency | activity change, negative = growth inhibition |
| --- | --- | --- |
| COc1ccc(-n2c(SCC(=O)Nc3ccccc3)nnc2-c2ccoc2C)cc1 | inconclusive: 7.31 µM [inhibitor, partial curve] |  |
| O=C(NCCCn1ccnc1)c1nc(Cn2cc([N+](=O)[O-])cn2)no1 | inconclusive: 20.6 µM [inhibitor, single point] |  |
| Cc1cccc(C(=O)Nc2ccc(N3CCC(N4CCCCC4)CC3)c(C(=O)O)c2)c1 | inactive |  |
| COc1ccc(N2CCN(C(=O)c3ccc4c(=O)n(Cc5ccc6c(c5)OCO6)c(=O)[nH]c4c3)CC2)cc1 | inactive |  |
| COc1cccc(NC(=O)N(Cc2cn(C)c3ccccc23)C2CCCCCC2)c1 | active: 5.8 µM |  |
| COc1cccc(-c2nnc(NC(=O)c3ccco3)s2)c1 | inconclusive: 5.8 µM [inhibitor, full curve, poor fit] |  |
| COc1ccc(CN2CCCC(C(=O)c3ccc(Cl)cc3)C2)cc1Cn1cccn1 (stereo unspecified) | inconclusive: 29.1 µM [inhibitor, single point] |  |
| COc1ccc(C(=O)NC(C)C2CC3CCC2C3)cc1 (stereo unspecified) | inconclusive: 0.82 µM [inhibitor, full curve, poor fit] |  |
| O=[N+]([O-])c1ccc(O)c(/C=N\N=C2c3ccccc3-c3ccccc32)c1 | active: 11.6 µM |  |
| O=C1N=C(N2CCOCC2)S/C1=C/c1ccc(-c2ccccc2Cl)o1 | inconclusive: 14.6 µM [inhibitor, partial curve] |  |
| Cc1ccc(C)n1-c1nnc(N2CCCC(C(=O)NCc3cccc(Br)c3)C2)s1 (stereo unspecified) | inconclusive: 29.1 µM [inhibitor, single point] |  |
| CC(=O)Nc1ccc(C(=O)Nc2nc(-c3ccccn3)cs2)cc1 | active: 14.6 µM |  |
| Cc1ccc(C)c(NC(=O)c2nc(-c3ccccc3)n(-c3ccccc3)n2)c1 | inconclusive: 29.1 µM [inhibitor, single point] |  |
| COc1cc(/C=N/NC(=O)Cc2ccc(Br)cc2)cc(OC)c1O | inactive |  |
| CC(=O)Nc1ccc(/C=C/c2nc3ccccc3s2)cc1 | active: 11.2 µM |  |
| Cc1ccc(S(=O)(=O)c2n[nH]n3c2nc(=O)c2ccccc23)cc1 | inconclusive: 10.3 µM [inhibitor, partial curve, poor fit] |  |
| O=C(CCc1ccccc1)NN1C(=O)C2C3C=CC(O3)C2C1=O (stereo unspecified) | inactive |  |
| Nc1cccc(C(=O)Nc2ccc3nc(-c4cccnc4)[nH]c3c2)c1 | inactive |  |
| COc1cc(CNc2ccc3[nH]c(=O)[nH]c3c2)cc(Br)c1OCc1ccccc1F | active: 20.6 µM |  |
| O=C(/C=C/c1cccc([N+](=O)[O-])c1)N1CCN(Cc2ccc3c(c2)OCO3)CC1 | inconclusive: 18.4 µM [inhibitor, single point] |  |
| CC1=C(C(=O)NCc2ccc(Cl)cc2)C2(CCC(C)CC2)OC1=O (stereo unspecified) | inconclusive: 20.6 µM [inhibitor, single point] and inconclusive: 29.1 µM [inhibitor, single point] |  |
| Cc1cccc(Nc2ccccc2C(=O)OCC(=O)NCc2ccco2)c1C | inconclusive: 29.1 µM [inhibitor, single point] |  |
| O=C(Nc1cc(S(=O)(=O)N2CCCCC2)ccc1N1CCCCC1)C1CC1 | active: 16.4 µM |  |
